The values below come from the antibiotic and cytotoxicity screens of Wong et al. (2023).

One assay has as its system HSkMC. Briefly: cytotoxicity call (relative viability < 0.9). The conditions noted are these: 10 µM.
A further assay deals with HepG2. Description: cytotoxicity call (relative viability < 0.9). The conditions noted are these: 10 µM.
In another assay the test system is S. aureus RN4220. Description: growth inhibition call (relative growth <= 0.2). The conditions noted are these: 50 µM.

SMILES strings stand for the structures. This is one part of the list.

As to `C[C@H]1CN([C@@H](C)CO)C(=O)Cc2cc(NC(=O)Nc3ccc4c(c3)OCO4)ccc2O[C@@H]1CN(C)S(C)(=O)=O`, the cytotoxicity call with HSkMC and with HepG2 was “inactive” in each case. The growth inhibition call with S. aureus RN4220 is “inactive”.
`Cc1[nH]c(=O)n(C(C)(C)C)c(=O)c1C`: the cytotoxicity call with HSkMC and in the assay with HepG2 was “inactive” each time. For the same compound, the growth inhibition call with S. aureus RN4220 was “inactive”.
For `O=c1c(O)c(-c2ccc(O)cc2)oc2cc(O)cc(O)c12`, the cytotoxicity call with HSkMC and with HepG2 was “inactive” each time. For the same compound, the growth inhibition call in the assay with S. aureus RN4220 was “inactive”.
Turning to `C[C@@H]1CCCCO[C@@H](CN(C)C(=O)Cc2ccccc2)[C@H](C)CN([C@H](C)CO)C(=O)c2cc(NC(=O)Nc3ccccc3)ccc2O1`, the cytotoxicity call in the assay with HSkMC and in the assay with HepG2 was “inactive” each time. For the same compound, the growth inhibition call in the assay on S. aureus RN4220 is “inactive”.
Consider `COc1ccc(NC(=O)Nc2cccc3c2O[C@H](CN(C)Cc2ccc(-c4ccccc4)cc2)[C@@H](C)CN([C@@H](C)CO)C3=O)cc1`, for which the cytotoxicity call with HSkMC and in the assay on HepG2 was “active” in each case. In addition, the growth inhibition call in the assay on S. aureus RN4220 was “inactive”.
Take `CNC[C@H]1OCCCC[C@H](C)Oc2ccc(NC(=O)Nc3cccc4ccccc34)cc2C(=O)N([C@@H](C)CO)C[C@@H]1C`: the cytotoxicity call in the assay with HSkMC and in the assay with HepG2 was “inactive” each time. Besides, the growth inhibition call with S. aureus RN4220 is “inactive”.
`C[C@H]1CN([C@@H](C)CO)C(=O)c2cc(NC(=O)Cn3cnnn3)ccc2O[C@H]1CN(C)S(=O)(=O)c1ccc(F)cc1`: the cytotoxicity call with HSkMC and with HepG2 was “inactive” throughout. Also, the growth inhibition call with S. aureus RN4220 was “inactive”.
For `CC1(C)O[C@@]2(C)CC[C@@H]1C[C@@H]2O[C@H]1O[C@@H](CO)[C@@H](O)[C@@H](O)[C@@H]1O`, the cytotoxicity call with HSkMC and in the assay on HepG2 was “inactive” in each case. Also, the growth inhibition call in the assay with S. aureus RN4220 was “inactive”.
`Cc1noc(C)c1S(=O)(=O)N(C)C[C@@H]1Oc2c(NC(=O)C3CCOCC3)cccc2C(=O)N([C@H](C)CO)C[C@@H]1C`: the cytotoxicity call with HSkMC and in the assay on HepG2 was “inactive” each time. Besides, the growth inhibition call in the assay on S. aureus RN4220 is “inactive”.
For `C[C@H]1CN([C@@H](C)CO)C(=O)c2cccc(NC(=O)c3ccncc3)c2O[C@H]1CN(C)S(=O)(=O)c1cccs1`, the cytotoxicity call with HSkMC and with HepG2 was “inactive” in each case. In the assay on S. aureus RN4220, the growth inhibition call is “inactive”.
`COc1ccccc1C#Cc1cnc2c(c1)C(=O)N([C@H](C)CO)C[C@@H](C)[C@H](CN(C)C(=O)CN(C)C)O2`: the cytotoxicity call with HSkMC and in the assay with HepG2 was “inactive” throughout. Also, the growth inhibition call in the assay on S. aureus RN4220 was “inactive”.
Consider `OC[C@H]1NC[C@H](O)[C@@H](O)[C@@H]1O`, for which the cytotoxicity call with HSkMC and in the assay on HepG2 was “inactive” in each case. The growth inhibition call in the assay with S. aureus RN4220 was “inactive”.
Consider `COc1ccc(-c2ccc3c(c2)O[C@@H](CN(C)CC2CCOCC2)[C@@H](C)CN([C@@H](C)CO)S3(=O)=O)cc1`, for which the cytotoxicity call in the assay with HSkMC and in the assay with HepG2 was “inactive” in each case. Moreover, the growth inhibition call in the assay with S. aureus RN4220 is “inactive”.
With `C[C@H](CO)N1C[C@H](C)[C@@H](CN(C)S(=O)(=O)c2ccc(C#N)cc2)OCc2cn(nn2)CCCC1=O`, the cytotoxicity call in the assay with HSkMC and in the assay on HepG2 was “inactive” in each case. In the assay on S. aureus RN4220, the growth inhibition call was “inactive”.
As to `C[C@@H]1CN([C@@H](C)CO)C(=O)Cc2cc(NC(=O)Nc3ccc(F)cc3)ccc2O[C@H]1CN(C)Cc1ccc(C(F)(F)F)cc1`, the cytotoxicity call in the assay on HSkMC is “inactive”. Also, the cytotoxicity call in the assay on HepG2 was “active”. In addition, the growth inhibition call with S. aureus RN4220 is “inactive”.
For the compound `C[C@H](CO)N1C[C@H](C)[C@H](CN(C)Cc2ccccc2)Oc2ccc(NC(=O)CCN3CCOCC3)cc2C1=O`, the cytotoxicity call in the assay with HSkMC and with HepG2 was “inactive” each time. The growth inhibition call in the assay on S. aureus RN4220 is “inactive”.
Regarding `C[C@@H]1CCCCO[C@H](CN(C)Cc2ccc(C(F)(F)F)cc2)[C@H](C)CN([C@@H](C)CO)C(=O)c2cc(NC(=O)NC3CCCCC3)ccc2O1`, the cytotoxicity call in the assay on HSkMC (human skeletal muscle cells) and with HepG2 was “active” throughout. For the same compound, in the assay with S. aureus RN4220, the growth inhibition call was “inactive”.
Take `C[C@H]1CN([C@@H](C)CO)C(=O)c2c(c3ccccc3n2C)-c2ccccc2CO[C@H]1CN(C)Cc1ccc2c(c1)OCCN2C`: the cytotoxicity call with HSkMC and with HepG2 was “inactive” in each case. Also, the growth inhibition call in the assay with S. aureus RN4220 was “inactive”.
Regarding `CC(C)[C@@H](O)C[C@@H](C)O[C@@H]1O[C@H](CO[C@@H]2OC[C@](O)(CO)[C@H]2O)[C@@H](O)[C@H](O)[C@H]1O`, the cytotoxicity call with HSkMC and in the assay with HepG2 was “inactive” each time. The growth inhibition call with S. aureus RN4220 was “inactive”.
`C[C@H](CO)N1C[C@H](C)[C@H](CN(C)C(=O)Nc2cccc3ccccc23)OCCCC[C@H](C)Oc2ccc(NC(=O)C3CCCCC3)cc2C1=O`: the cytotoxicity call with HSkMC was “inactive”. In addition, the cytotoxicity call in the assay with HepG2 is “active”. For the same compound, the growth inhibition call in the assay on S. aureus RN4220 was “inactive”.
Take `C[C@H]1CCCCO[C@H](CN(C)Cc2ccc(Cl)c(Cl)c2)[C@@H](C)CN([C@@H](C)CO)C(=O)c2cc(N(C)C)ccc2O1`: the cytotoxicity call in the assay with HSkMC and in the assay with HepG2 was “inactive” in each case. In addition, in the assay on S. aureus RN4220, the growth inhibition call is “inactive”.
`O=C(C[C@H]1C[C@H]2c3cc(NC(=O)C4CCOCC4)ccc3O[C@H]2[C@H](CO)O1)NCc1ccc2c(c1)OCO2`: the cytotoxicity call with HSkMC and in the assay on HepG2 was “inactive” in each case. Besides, in the assay with S. aureus RN4220, the growth inhibition call is “inactive”.
Take `Cc1ccc(S(=O)(=O)Nc2ccc3c(c2)C(=O)N([C@@H](C)CO)C[C@H](C)[C@H](CN(C)S(C)(=O)=O)OCCCC[C@@H](C)O3)cc1`: the cytotoxicity call with HSkMC and with HepG2 was “inactive” in each case. Moreover, the growth inhibition call with S. aureus RN4220 is “inactive”.
Consider `C[C@@H]1CN([C@@H](C)CO)C(=O)c2cc(NC(=O)Cc3ccccc3)ccc2O[C@H]1CN(C)Cc1ccc(-c2ccccc2)cc1`, for which the cytotoxicity call in the assay with HSkMC is “inactive”. The cytotoxicity call in the assay on HepG2 was “active”. Besides, in the assay on S. aureus RN4220, the growth inhibition call is “inactive”.
Turning to `C[C@H](CO)N1C[C@H](C)[C@@H](CN(C)S(=O)(=O)c2ccc(F)cc2)OCCCC[C@H](C)Oc2ccc(NC(=O)Nc3cccc4ccccc34)cc2C1=O`, the cytotoxicity call in the assay with HSkMC and in the assay with HepG2 was “inactive” in each case. In addition, the growth inhibition call in the assay with S. aureus RN4220 is “inactive”.
